Reference: publication PMC10075517, “Design, synthesis and biological evaluation of novel histone deacetylase (HDAC) inhibitors derived from β-elemene scaffold” (Journal of Enzyme Inhibition and Medicinal Chemistry, 2023)

Assays:
[1] = test system: HEL cells; assay: In vitro anti-proliferative assay (CCK8), HEL; conditions: Homo sapiens, 72 h, read-out: IC50 HEL
[2] = test system: K562 cells; assay: In vitro anti-proliferative assay (CCK8), K562; conditions: Homo sapiens, K562, 72 h, read-out: IC50 K562
[3] = test system: WSU-DLCL-2 cells; assay: In vitro anti-proliferative assay (CCK8), WSU-DLCL-2; conditions: Homo sapiens, WSUDLCL2, 72 h, read-out: IC50 WSU-DLCL-2
[4] = molecular target: HDAC1 (Homo sapiens, UniProt Q13547); assay: biochemical
[5] = molecular target: T1, HDAC6 (Homo sapiens, UniProt Q9UBN7); assay: biochemical
T1 sequence (Q9UBN7 1-1215): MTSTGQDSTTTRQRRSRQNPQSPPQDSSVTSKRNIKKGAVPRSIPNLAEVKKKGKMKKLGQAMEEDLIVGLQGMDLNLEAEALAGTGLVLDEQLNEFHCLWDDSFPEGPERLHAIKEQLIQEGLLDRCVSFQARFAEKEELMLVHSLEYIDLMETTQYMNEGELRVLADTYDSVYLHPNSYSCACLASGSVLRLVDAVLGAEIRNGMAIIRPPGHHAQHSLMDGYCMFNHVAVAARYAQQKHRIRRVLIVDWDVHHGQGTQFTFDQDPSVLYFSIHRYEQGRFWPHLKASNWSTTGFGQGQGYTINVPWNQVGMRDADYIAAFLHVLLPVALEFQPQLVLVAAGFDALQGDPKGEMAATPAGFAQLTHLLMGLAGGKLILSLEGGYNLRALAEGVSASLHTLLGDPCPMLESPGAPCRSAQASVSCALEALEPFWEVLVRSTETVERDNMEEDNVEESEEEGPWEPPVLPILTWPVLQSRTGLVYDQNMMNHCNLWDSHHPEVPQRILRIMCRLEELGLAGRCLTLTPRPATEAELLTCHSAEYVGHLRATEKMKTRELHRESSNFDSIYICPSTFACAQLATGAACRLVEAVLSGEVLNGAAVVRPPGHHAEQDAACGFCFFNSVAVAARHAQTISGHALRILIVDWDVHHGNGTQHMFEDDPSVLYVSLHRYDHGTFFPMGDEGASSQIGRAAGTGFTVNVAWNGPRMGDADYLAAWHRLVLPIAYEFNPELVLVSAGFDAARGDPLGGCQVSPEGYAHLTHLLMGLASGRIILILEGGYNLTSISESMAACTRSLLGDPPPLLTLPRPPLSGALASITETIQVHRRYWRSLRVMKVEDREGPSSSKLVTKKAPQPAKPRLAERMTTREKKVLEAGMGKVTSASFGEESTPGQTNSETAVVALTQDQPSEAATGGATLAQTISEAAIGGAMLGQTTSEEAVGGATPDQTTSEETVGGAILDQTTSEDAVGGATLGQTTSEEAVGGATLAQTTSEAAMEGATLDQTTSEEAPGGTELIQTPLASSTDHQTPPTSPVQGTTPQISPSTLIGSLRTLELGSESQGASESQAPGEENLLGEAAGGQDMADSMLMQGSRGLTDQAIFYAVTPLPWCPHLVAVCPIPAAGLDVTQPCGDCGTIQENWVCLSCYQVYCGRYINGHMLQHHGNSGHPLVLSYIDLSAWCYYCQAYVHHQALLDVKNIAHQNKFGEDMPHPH

Sequence of HDAC1 (Q13547 whole entry): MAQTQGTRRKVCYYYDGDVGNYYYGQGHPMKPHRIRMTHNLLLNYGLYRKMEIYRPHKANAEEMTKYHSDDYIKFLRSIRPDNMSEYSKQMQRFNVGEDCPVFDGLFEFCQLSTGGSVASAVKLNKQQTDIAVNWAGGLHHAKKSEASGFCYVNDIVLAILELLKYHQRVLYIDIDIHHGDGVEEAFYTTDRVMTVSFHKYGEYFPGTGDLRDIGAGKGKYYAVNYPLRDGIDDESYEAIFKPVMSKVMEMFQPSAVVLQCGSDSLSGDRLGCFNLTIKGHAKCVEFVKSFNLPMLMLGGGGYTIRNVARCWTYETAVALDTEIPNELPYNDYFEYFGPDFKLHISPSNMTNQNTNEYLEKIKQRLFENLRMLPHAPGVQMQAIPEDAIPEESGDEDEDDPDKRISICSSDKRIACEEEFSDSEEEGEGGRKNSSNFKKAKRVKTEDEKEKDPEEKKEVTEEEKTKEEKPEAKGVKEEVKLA

| Compound | melting point [°C] | IC50 [4] [nM] | IC50 [5] [nM] | also measured |
| --- | --- | --- | --- | --- |
| C=CC1(C)CCC(C(=C)C)CC1C(=C)C (stereo not drawn) [Compound 1, β-Elemene] | – | – | – | IC50 [1]: > 200000 nM; IC50 [2]: > 200000 nM; IC50 [3]: > 200000 nM |
| C=C[C@]1(C)CC[C@@H](C(=C)CNC(=O)CCCCC(=O)NO)C[C@H]1C(=C)C [Compound 18a, N^1-hydroxy-N^6-(2-((1R,3S,4S)-4-methyl-3-(prop-1-en-2-yl)-4-vinylcyclohexyl)allyl)adipamide] | 95.6 to 96.7 | – | – | – |
| C=C[C@]1(C)CC[C@@H](C(=C)CNC(=O)CCCCCC(=O)NO)C[C@H]1C(=C)C [Compound 18b, N^1-hydroxy-N^7-(2-((1R,3S,4S)-4-methyl-3-(prop-1-en-2-yl)-4-vinylcyclohexyl)allyl)heptanediamide] | 55.7 to 58.1 | – | – | IC50 [1]: 2160 ± 160 nM; IC50 [2]: 5160 ± 130 nM; IC50 [3]: 2080 ± 220 nM |
| C=C[C@]1(C)CC[C@@H](C(=C)CNC(=O)CCCCCCC(=O)NO)C[C@H]1C(=C)C [Compound 18c, N^1-hydroxy-N^8-(2-((1R,3S,4S)-4-methyl-3-(prop-1-en-2-yl)-4-vinylcyclohexyl)allyl)octanediamide] | 58.6 to 59.3 | – | – | – |
| C=C[C@]1(C)CC[C@@H](C(=C)CN2CCN(C(=O)CCCCC(=O)NO)CC2)C[C@H]1C(=C)C [Compound 18d, N-hydroxy-6–(4-(2-((1R,3S,4S)-4-methyl-3-(prop-1-en-2-yl)-4-vinylcyclohexyl)allyl)piperazin-1-yl)-6-oxohexanamide] | – | 900 ± 78 | 532 ± 27 | – |
| C=C[C@]1(C)CC[C@@H](C(=C)CN2CCN(C(=O)CCCCCC(=O)NO)CC2)C[C@H]1C(=C)C [Compound 18e, N-hydroxy-7–(4-(2-((1R,3S,4S)-4-methyl-3-(prop-1-en-2-yl)-4-vinylcyclohexyl)allyl)piperazin-1-yl)-7-oxoheptanamide] | 126.7 to 127.5 | – | – | – |
| C=C[C@]1(C)CC[C@@H](C(=C)CN2CCN(C(=O)CCCCCCC(=O)NO)CC2)C[C@H]1C(=C)C [Compound 18f, N-hydroxy-8–(4-(2-((1R,3S,4S)-4-methyl-3-(prop-1-en-2-yl)-4-vinylcyclohexyl)allyl)piperazin-1-yl)-8-oxooctanamide] | 144.3 to 144.9 | 81 ± 8 | 32 ± 9 | – |
| C=C[C@]1(C)CC[C@@H](C(=C)CNC(=O)CCCCC(=O)NO)C[C@H]1C(=C)Cn1cccn1 [Compound 27a, N^1-(2-((1R,3R,4S)-3–(3-(1H-pyrazol-1-yl)prop-1-en-2-yl)-4-methyl-4-vinylcyclohexyl)allyl)-N^6-hydroxyadipamide] | 65.6 to 66.8 | 879 ± 56 | 261 ± 4 | – |
| C=C[C@]1(C)CC[C@@H](C(=C)CNC(=O)CCCCCC(=O)NO)C[C@H]1C(=C)Cn1cccn1 [Compound 27b, N^1-(2-((1R,3R,4S)-3–(3-(1H-pyrazol-1-yl)prop-1-en-2-yl)-4-methyl-4-vinylcyclohexyl)allyl)-N^7-hydroxyheptanediamide] | 47.3 to 49 | – | – | – |
| C=C[C@]1(C)CC[C@@H](C(=C)CNC(=O)CCCCCCC(=O)NO)C[C@H]1C(=C)Cn1cccn1 [Compound 27c, N^1-(2-((1R,3R,4S)-3–(3-(1H-pyrazol-1-yl)prop-1-en-2-yl)-4-methyl-4-vinylcyclohexyl)allyl)-N^8-hydroxyoctanediamide] | 54.7 to 55.9 | – | – | IC50 [1]: 6050 ± 240 nM; IC50 [2]: 5600 ± 40 nM; IC50 [3]: 2270 ± 300 nM |
| C=C[C@]1(C)CC[C@@H](C(=C)CN2CCN(C(=O)CCCCC(=O)NO)CC2)C[C@H]1C(=C)Cn1cccn1 [Compound 27d, 6–(4-(2-((1R,3R,4S)-3–(3-(1H-pyrazol-1-yl)prop-1-en-2-yl)-4-methyl-4-vinylcyclohexyl)allyl)piperazin-1-yl)-N-hydroxy-6-oxohexanamide] | 71.7 to 72.2 | – | – | – |
| C=C[C@]1(C)CC[C@@H](C(=C)CN2CCN(C(=O)CCCCCC(=O)NO)CC2)C[C@H]1C(=C)Cn1cccn1 [Compound 27e, 7–(4-(2-((1R,3R,4S)-3–(3-(1H-pyrazol-1-yl)prop-1-en-2-yl)-4-methyl-4-vinylcyclohexyl)allyl)piperazin-1-yl)-N-hydroxy-7-oxoheptanamide] | 55.3 to 56.7 | 189 ± 26 | – | – |
| C=C[C@]1(C)CC[C@@H](C(=C)CN2CCN(Cc3ccc(C(=O)NO)cc3)CC2)C[C@H]1C(=C)Cn1cccn1 [Compound 34] | 111.8 to 112.6 | – | – | – |
| C=C[C@]1(C)CC[C@@H](C(=C)Cn2cccn2)C[C@H]1C(=C)CNC(=O)CCCCCCC(=O)Nc1ccccc1N [Compound 41] | – | 2130 ± 294 | > 5000 | – |
| C=C[C@]1(C)CC[C@@H](C(=C)Cn2cccn2)C[C@H]1C(=C)CN1CCN(Cc2ccc(C(=O)NO)cc2)CC1 [Compound 43] | 103.2 to 105.3 | – | – | – |

Continued, in another order:

| melting point [°C] | IC50 [4] [nM] | IC50 [5] [nM] | Compound | also measured |
| --- | --- | --- | --- | --- |
| 61.7 to 63.3 | 986 ± 13 | 398 ± 41 | C=C[C@]1(C)CC[C@@H](C(=C)Cn2cccn2)C[C@H]1C(=C)CNC(=O)CCCCC(=O)NO [Compound 39a, N^1-(2-((1R,2S,5R)-5–(3-(1H-pyrazol-1-yl)prop-1-en-2-yl)-2-methyl-2-vinylcyclohexyl)allyl)-N^6-hydroxyadipamide] | – |
| 63.8 to 64.9 | 136 ± 33 | 20 ± 7 | C=C[C@]1(C)CC[C@@H](C(=C)Cn2cccn2)C[C@H]1C(=C)CNC(=O)CCCCCC(=O)NO [Compound 39b, N^1-(2-((1R,2S,5R)-5–(3-(1H-pyrazol-1-yl)prop-1-en-2-yl)-2-methyl-2-vinylcyclohexyl)allyl)-N^7-hydroxyheptanediamide] | – |
| 55.4 to 57.9 | – | – | C=C[C@]1(C)CC[C@@H](C(=C)Cn2cccn2)C[C@H]1C(=C)CNC(=O)CCCCCCC(=O)NO [Compound 39c, N^1-(2-((1R,2S,5R)-5–(3-(1H-pyrazol-1-yl)prop-1-en-2-yl)-2-methyl-2-vinylcyclohexyl)allyl)-N^8-hydroxyoctanediamide] | – |
| 100.2 to 102.3 | > 5000 | > 5000 | C=C[C@]1(C)CC[C@@H](C(=C)Cn2cccn2)C[C@H]1C(=C)CN1CCN(C(=O)CCCCC(=O)NO)CC1 [Compound 39d, 6–(4-(2-((1R,2S,5R)-5–(3-(1H-pyrazol-1-yl)prop-1-en-2-yl)-2-methyl-2-vinylcyclohexyl)allyl)piperazin-1-yl)-N-hydroxy-6-oxohexanamide] | – |
| 60.2 to 61.3 | – | – | C=C[C@]1(C)CC[C@@H](C(=C)Cn2cccn2)C[C@H]1C(=C)CN1CCN(C(=O)CCCCCC(=O)NO)CC1 [Compound 39e, 7–(4-(2-((1R,2S,5R)-5–(3-(1H-pyrazol-1-yl)prop-1-en-2-yl)-2-methyl-2-vinylcyclohexyl)allyl)piperazin-1-yl)-N-hydroxy-7-oxoheptanamide] | – |
